Over roughly 81,000 sequences, “one-hybrid fitness for binding parS DNA” has its median near -0.17; the highest 2% begin near 0.51. Some of the results follow.
B1: Caulobacter ParB omega fusion; a variant is named by its letters at X, in order, B8GW30 (parent)
chain: MESVVVGEPGMSEGRRGLGRGLSALLGEVDAAPAQAPGEQLGGSREAPIEILQRNPDQPRRTFREEDLEDLSNSIREKGVLQPILVRPSPDTAGEYQIVAGERAWRAAQRAGLKTVPIMVRELDDLAVLEIGIIENVQRADLNVLEEALSYKVLMEKFERTQENIAQTIGKSXSHVANXMRLLXLPDEVQSYLVSGELTAXHARAIAAAADPVALAKQIIEGGLSVRETEALARKAPNLSAGKSKGGRPPRVKDTDTQALESDLSSVLGLDVSIDHRGSTGTLTITYATLEQLDDLCNRLTRGI

Variants of: B1
Experiment: one-hybrid fitness for binding parS DNA (scaled: cognate 1, non-cognate 0); higher = stronger binding
Details: with parS DNA site
How it was run: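 In E. coli USO, a HIS3 reporter with its site placed 19 bp from the promoter was used to select Caulobacter ParB variants randomised at four specificity codons. Growth lasted 48 hours at 37°C on histidine-free M9 containing 0.1 mM IPTG and 5 mM 3-AT. Fitness was taken as the log change in variant-to-wild-type read ratio from Illumina sequencing of pre- and post-selection plasmids, rescaled between the non-cognate and cognate sites.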

Variant	one-hybrid fitness for binding parS DNA
DDLM	≤ 0.2
CAQW	≤ 0.2
KTCA	≤ 0.2
NYGG	≤ 0.2
DDLT	≤ 0.2
SLDL	≤ 0.2
NQHL	≤ 0.2
PFYM	≤ 0.2
WIFR	≤ 0.2
VWNT	≤ 0.2
QWLD	≤ 0.2
KTLF	≤ 0.2
KFTK	≤ 0.2
TTAG	≤ 0.2
MSKG	≤ 0.2
PIPG	≤ 0.2
KYDG	≤ 0.2
HMGT	≤ 0.2
NANT	≤ 0.2
ELQT	≤ 0.2
RNEA	0.253
TTYY	≤ 0.2
ICTY	≤ 0.2
KRVD	≤ 0.2

Variant	one-hybrid fitness for binding parS DNA
PFAL	≤ 0.2
LTVC	≤ 0.2
RQKR	≤ 0.2
ARVT	≤ 0.2
KRCG	≤ 0.2
SVDS	≤ 0.2
KHKS	≤ 0.2
QHAN	≤ 0.2
VASE	≤ 0.2
TIQR	≤ 0.2
CLQY	≤ 0.2
RKIK	≤ 0.2
LGKK	≤ 0.2
NHER	≤ 0.2
WKVT	≤ 0.2
QHNY	≤ 0.2
GPQG	≤ 0.2
RMDW	≤ 0.2
AVKR	≤ 0.2
AQNT	≤ 0.2
CLHG	≤ 0.2
YGRG	≤ 0.2
CDSD	≤ 0.2
HGAE	≤ 0.2

Variant	one-hybrid fitness for binding parS DNA
NSNG	≤ 0.2
KCRV	≤ 0.2
MLTC	≤ 0.2
TMGW	≤ 0.2
RCSQ	≤ 0.2
TNAT	≤ 0.2
RDTK	≤ 0.2
YLPF	≤ 0.2
LSFC	≤ 0.2
ATFL	≤ 0.2
RMWH	0.231
LAAL	≤ 0.2
SIHM	≤ 0.2
RDQY	≤ 0.2
KCHR	≤ 0.2
GMSS	≤ 0.2
PCHF	≤ 0.2
RRSC	0.596
TIVR	≤ 0.2
CTMG	≤ 0.2
DNAS	≤ 0.2
SRAR	≤ 0.2
PFQS	≤ 0.2
VAVL	≤ 0.2

Variant	one-hybrid fitness for binding parS DNA
ASYE	≤ 0.2
VFIS	≤ 0.2
YSFT	≤ 0.2
FAYY	≤ 0.2
QLIR	≤ 0.2
DQTI	≤ 0.2
EIQV	≤ 0.2
KWVW	≤ 0.2
MINS	≤ 0.2
SVIM	≤ 0.2
FPFG	≤ 0.2
DRTR	≤ 0.2
RPHY	≤ 0.2
QLIL	≤ 0.2
YSHA	≤ 0.2
DQCS	≤ 0.2
TGPQ	≤ 0.2
GEFN	0.205
IEVS	≤ 0.2
PCVF	≤ 0.2
NPLG	≤ 0.2
IIDG	≤ 0.2
FATT	≤ 0.2
LMCG	≤ 0.2

Variant	one-hybrid fitness for binding parS DNA
PWLD	≤ 0.2
KATI	≤ 0.2
GLRT	≤ 0.2
CVTF	≤ 0.2
HNEA	≤ 0.2
CCTS	≤ 0.2
KPHR	≤ 0.2
LISL	≤ 0.2
LIDG	≤ 0.2
PCPR	≤ 0.2
PAQG	≤ 0.2
LDLG	≤ 0.2
QCHE	≤ 0.2
TFLA	≤ 0.2
LKDT	≤ 0.2
NCKE	≤ 0.2
NGDR	≤ 0.2
CWRR	≤ 0.2
QGKK	≤ 0.2
NLIM	≤ 0.2
RGWR	≤ 0.2
QFAP	≤ 0.2
PDLW	≤ 0.2
FDYR	≤ 0.2

Variant	one-hybrid fitness for binding parS DNA
GVIS	≤ 0.2
RCDT	0.813
RYAT	0.899
NTAR	≤ 0.2
ACMV	≤ 0.2
GGWR	≤ 0.2
YYGR	≤ 0.2
CHLD	≤ 0.2
NSFW	≤ 0.2
WPIR	≤ 0.2
TIHH	≤ 0.2
PEMN	≤ 0.2
MCCR	≤ 0.2
RWKY	0.565
CQLC	≤ 0.2
PTIT	≤ 0.2
EDNC	≤ 0.2
QDRL	≤ 0.2
AQGK	≤ 0.2
TWTQ	≤ 0.2
NSQG	≤ 0.2
IKWD	≤ 0.2
VRMT	≤ 0.2
PNST	≤ 0.2

Variant	one-hybrid fitness for binding parS DNA
VFLT	≤ 0.2
PEKF	≤ 0.2
LITS	≤ 0.2
TLTD	≤ 0.2
GLHL	≤ 0.2
SKKT	≤ 0.2
RCYV	≤ 0.2
LALF	≤ 0.2
RQTM	0.331
NQAC	≤ 0.2
SMMI	≤ 0.2
TPHK	≤ 0.2
WNAW	≤ 0.2
PKDF	≤ 0.2
HDCI	≤ 0.2
YQDT	≤ 0.2
RWDK	≤ 0.2
RRAT	0.562
NSTQ	≤ 0.2
ANAS	≤ 0.2
QKDT	≤ 0.2
DVWR	≤ 0.2
TSCG	≤ 0.2
YNTH	≤ 0.2

Variant	one-hybrid fitness for binding parS DNA
ANRS	≤ 0.2
IALG	≤ 0.2
YERR	≤ 0.2
IAWG	≤ 0.2
WCAG	≤ 0.2
EDHR	≤ 0.2
PSYF	≤ 0.2
QYSS	≤ 0.2
IRTS	≤ 0.2
DVCT	≤ 0.2
PAYN	≤ 0.2
VGIN	≤ 0.2
PRTS	≤ 0.2
QTPR	≤ 0.2
KYLG	≤ 0.2
APNT	≤ 0.2
LTDG	≤ 0.2
PYDH	≤ 0.2
NNIS	≤ 0.2
GMPW	≤ 0.2
DDHL	≤ 0.2
HPSS	≤ 0.2
HMRA	≤ 0.2
WWLL	≤ 0.2

Variant	one-hybrid fitness for binding parS DNA
YSVP	0.319
VGIR	≤ 0.2
QSDE	≤ 0.2
ASCY	≤ 0.2
DVVH	≤ 0.2
REKY	≤ 0.2
TLCR	≤ 0.2
ASRG	≤ 0.2
HWCG	≤ 0.2
FRTM	≤ 0.2
PDNG	≤ 0.2
WMPS	≤ 0.2
PDPS	≤ 0.2
CISR	≤ 0.2
KWNR	≤ 0.2
RLEE	≤ 0.2
IAIG	≤ 0.2
QILT	≤ 0.2
HMMG	≤ 0.2
VVQC	≤ 0.2
NRTS	≤ 0.2
APCG	≤ 0.2
GHWE	≤ 0.2
HLTE	≤ 0.2

Variant	one-hybrid fitness for binding parS DNA
AHRA	≤ 0.2
RPSA	≤ 0.2
PRNK	≤ 0.2
IHVT	≤ 0.2
RGHG	0.65
CVSS	≤ 0.2
ARAN	≤ 0.2
DHLA	≤ 0.2
ARRM	≤ 0.2
EREG	≤ 0.2
AIPT	≤ 0.2
FHYS	≤ 0.2
RRRP	0.203
SQPN	≤ 0.2
FRAS	≤ 0.2
SPVT	≤ 0.2
MHVL	≤ 0.2
QLAE	≤ 0.2
PHTG	≤ 0.2
AAHA	≤ 0.2
GGED	≤ 0.2
LREG	≤ 0.2
MTGF	≤ 0.2
CGKS	≤ 0.2

Variant	one-hybrid fitness for binding parS DNA
NGVG	≤ 0.2
NHCS	≤ 0.2
LNKI	≤ 0.2
VSMY	≤ 0.2
VRYL	≤ 0.2
QFPD	≤ 0.2
GGHC	≤ 0.2
VKRL	≤ 0.2
NWCG	≤ 0.2
NANL	≤ 0.2
IVLG	≤ 0.2
LNGD	≤ 0.2
SKRN	≤ 0.2
AKEV	≤ 0.2
TTGF	≤ 0.2
YTAW	≤ 0.2
YREL	≤ 0.2
YITL	≤ 0.2
IKAS	≤ 0.2
ASDD	≤ 0.2
RWYH	≤ 0.2
LTAV	≤ 0.2
MVMS	≤ 0.2
VETR	≤ 0.2

Variant	one-hybrid fitness for binding parS DNA
EAEL	≤ 0.2
PVLC	≤ 0.2
VAAL	≤ 0.2
CWRG	≤ 0.2
GPYH	0.233
ANYC	≤ 0.2
QMPR	≤ 0.2
CTSL	≤ 0.2
KRQP	≤ 0.2
TGMV	≤ 0.2
CGNS	≤ 0.2
HTRV	≤ 0.2
NNQP	≤ 0.2
GCAI	≤ 0.2
PELR	≤ 0.2
GMSR	≤ 0.2
HKDR	≤ 0.2
MCHT	≤ 0.2
SDQY	≤ 0.2
VGDN	≤ 0.2
EPIS	≤ 0.2
TTVL	≤ 0.2
DPAL	≤ 0.2
CPDD	≤ 0.2

Variant	one-hybrid fitness for binding parS DNA
TEDC	≤ 0.2
QMPV	≤ 0.2
DLEG	≤ 0.2
FLRK	≤ 0.2
LDWS	≤ 0.2
RTSY	0.489
GHKG	≤ 0.2
PTRL	≤ 0.2
RMHA	0.603
HSAE	≤ 0.2
NQRR	≤ 0.2
NPTI	≤ 0.2
YQCC	≤ 0.2
MFQR	≤ 0.2
RSER	≤ 0.2
QYYK	≤ 0.2
FADR	≤ 0.2
WIGG	≤ 0.2
